These are yes or no findings as the source states them, for the method shown. For part of these data: In cells and extracts the contact can be indirect. Some results given as binding are weak or reduced against the parent protein; the word gives no strength. For part of these data: Sequences can lack the tags named with a protein.
T1: TERB2-VC (full-length human TERB2 fused to the Venus C-terminus) (human) (UniProt Q8NHR7)
T1 sequence: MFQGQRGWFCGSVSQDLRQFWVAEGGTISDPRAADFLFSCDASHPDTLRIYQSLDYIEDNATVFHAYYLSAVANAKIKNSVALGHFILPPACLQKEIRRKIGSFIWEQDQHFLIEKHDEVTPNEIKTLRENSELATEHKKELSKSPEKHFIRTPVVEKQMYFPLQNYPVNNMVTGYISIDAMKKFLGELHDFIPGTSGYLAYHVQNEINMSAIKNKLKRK

T2: Flag-tagged human TERB2 F192R (human) (UniProt Q8NHR7)
T2 sequence: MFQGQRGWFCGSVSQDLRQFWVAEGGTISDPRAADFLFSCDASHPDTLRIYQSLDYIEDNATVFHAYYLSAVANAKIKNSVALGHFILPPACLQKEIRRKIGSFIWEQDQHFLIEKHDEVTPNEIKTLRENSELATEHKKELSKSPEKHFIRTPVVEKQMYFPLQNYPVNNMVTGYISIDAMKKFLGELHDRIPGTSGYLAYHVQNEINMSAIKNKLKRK

T3: Flag-tagged human TERB2, wild type (human) (UniProt Q8NHR7)
T3 sequence: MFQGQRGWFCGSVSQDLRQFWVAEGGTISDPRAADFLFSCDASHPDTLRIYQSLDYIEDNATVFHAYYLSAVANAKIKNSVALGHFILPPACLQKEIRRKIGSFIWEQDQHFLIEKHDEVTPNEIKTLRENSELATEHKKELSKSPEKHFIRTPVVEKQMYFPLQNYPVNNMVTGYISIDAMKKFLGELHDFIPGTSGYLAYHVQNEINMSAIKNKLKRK

T4: Flag-tagged human TERB2 Y56E (human) (UniProt Q8NHR7)
T4 sequence: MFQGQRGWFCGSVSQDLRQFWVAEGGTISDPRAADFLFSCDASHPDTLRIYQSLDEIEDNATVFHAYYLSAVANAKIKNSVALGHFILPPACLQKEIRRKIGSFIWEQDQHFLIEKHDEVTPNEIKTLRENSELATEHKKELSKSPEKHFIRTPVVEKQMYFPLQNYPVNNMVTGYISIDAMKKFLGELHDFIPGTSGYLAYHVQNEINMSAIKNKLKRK

T5: Flag-tagged mouse TERB2 F188R (mouse) (UniProt Q9D494)
T5 sequence: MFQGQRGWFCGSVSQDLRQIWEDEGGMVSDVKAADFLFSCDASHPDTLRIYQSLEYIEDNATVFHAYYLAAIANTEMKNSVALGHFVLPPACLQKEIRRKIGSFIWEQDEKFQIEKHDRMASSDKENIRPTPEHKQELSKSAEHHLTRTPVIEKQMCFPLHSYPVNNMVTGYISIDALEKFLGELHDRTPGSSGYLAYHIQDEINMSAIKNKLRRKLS

T6: Flag-tagged mouse TERB2, wild type (mouse) (UniProt Q9D494)
T6 sequence: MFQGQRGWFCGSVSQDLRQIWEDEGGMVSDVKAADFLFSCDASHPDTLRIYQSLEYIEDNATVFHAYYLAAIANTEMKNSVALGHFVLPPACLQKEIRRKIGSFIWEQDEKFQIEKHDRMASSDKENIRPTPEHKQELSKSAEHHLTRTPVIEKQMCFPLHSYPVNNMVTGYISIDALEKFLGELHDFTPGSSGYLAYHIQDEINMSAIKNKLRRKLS

T7: Flag-tagged mouse TERB2 Y56E (mouse) (UniProt Q9D494)
T7 sequence: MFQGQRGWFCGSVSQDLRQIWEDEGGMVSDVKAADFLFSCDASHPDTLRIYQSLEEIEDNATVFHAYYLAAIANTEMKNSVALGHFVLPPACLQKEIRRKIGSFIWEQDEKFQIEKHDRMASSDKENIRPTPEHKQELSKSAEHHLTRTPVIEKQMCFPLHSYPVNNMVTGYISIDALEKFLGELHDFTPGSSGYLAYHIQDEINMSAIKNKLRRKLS

T8: TERB1-VC (full-length human TERB1 fused to the Venus C-terminus) (human) (UniProt Q8NA31)
T8 sequence: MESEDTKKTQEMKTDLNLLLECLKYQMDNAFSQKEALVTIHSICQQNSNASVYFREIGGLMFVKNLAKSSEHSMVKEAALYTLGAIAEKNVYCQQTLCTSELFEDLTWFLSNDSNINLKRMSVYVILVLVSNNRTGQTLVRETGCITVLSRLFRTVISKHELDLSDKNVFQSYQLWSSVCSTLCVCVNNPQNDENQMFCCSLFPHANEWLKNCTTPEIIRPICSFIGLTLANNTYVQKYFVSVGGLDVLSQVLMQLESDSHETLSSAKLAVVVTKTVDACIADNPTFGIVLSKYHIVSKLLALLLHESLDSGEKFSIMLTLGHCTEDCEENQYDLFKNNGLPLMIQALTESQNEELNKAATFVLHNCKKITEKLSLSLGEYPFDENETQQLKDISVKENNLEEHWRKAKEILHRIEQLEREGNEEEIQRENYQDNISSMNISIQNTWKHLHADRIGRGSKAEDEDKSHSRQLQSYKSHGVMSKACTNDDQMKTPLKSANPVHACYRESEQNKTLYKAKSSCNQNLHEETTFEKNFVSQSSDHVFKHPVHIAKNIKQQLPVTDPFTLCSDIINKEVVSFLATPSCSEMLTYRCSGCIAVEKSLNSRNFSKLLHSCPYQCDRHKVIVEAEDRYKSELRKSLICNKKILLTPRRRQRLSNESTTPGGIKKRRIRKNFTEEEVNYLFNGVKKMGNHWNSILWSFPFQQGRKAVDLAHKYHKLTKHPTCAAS

T9: Human TERB2_(2–116) (human) (UniProt Q8NHR7)
T9 sequence: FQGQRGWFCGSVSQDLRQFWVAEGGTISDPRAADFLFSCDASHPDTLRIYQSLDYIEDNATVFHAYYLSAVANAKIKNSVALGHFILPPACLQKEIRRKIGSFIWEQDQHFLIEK


Columns and labels:
[1] = biological target: T1, TERB2-VC (full-length human TERB2 fused to the Venus C-terminus) (human); test: split reporter; Venus BiFC: -VN and -VC fusions co-expressed by lentiviral co-infection of HEK293T cells; Venus signal read by FACS after 36 h
[2] = biological target: T2, Flag-tagged human TERB2 F192R (human); test: co-IP; transfected HEK293T cells; lysis in 25 mM Tris-HCl pH 7.4, 150 mM NaCl, 10% glycerol, 0.5% Triton X-100, 1 mM EDTA; anti-FLAG M2 Affinity Gel at 4 °C overnight; immunoblot
[3] = biological target: T3, Flag-tagged human TERB2, wild type (human); test: as above
[4] = biological target: T4, Flag-tagged human TERB2 Y56E (human); test: as above
[5] = biological target: T5, Flag-tagged mouse TERB2 F188R (mouse); test: as above
[6] = biological target: T6, Flag-tagged mouse TERB2, wild type (mouse); test: as above
[7] = biological target: T7, Flag-tagged mouse TERB2 Y56E (mouse); test: as above
[8] = biological target: T8, TERB1-VC (full-length human TERB1 fused to the Venus C-terminus) (human); test: split reporter; Venus BiFC: -VN and -VC fusions co-expressed by lentiviral co-infection of HEK293T cells; Venus signal read by FACS after 36 h
[9] = biological target: T9, Human TERB2_(2–116) (human); test: crystal structure; TERB1_(587–659)–TERB2_(2–116) complex, co-expressed and co-purified; Hg-SAD, refined against a 3.3-Å native dataset; both purified

Binder	binding [5]	binding [6]	binding [7]	also measured
MLTYRCSGCIAVEKSLNSRNFSKLLHSCPYQCDRHKVIVEAEDRYKSELR (domain or fragment, UniProt Q8NA31 587-636) [TERB1 residues 587–636 fused to the Venus N-terminus (TERB1-VN fragment)]				binding [1]: binds
Human TERB1 (293T cells) (protein, UniProt Q8NA31 1-727) MESEDTKKTQEMKTDLNLLLECLKYQMDNAFSQKEALVTIHSICQQNSNASVYFREIGGLMFVKNLAKSSEHSMVKEAALYTLGAIAEKNVYCQQTLCTSELFEDLTWFLSNDSNINLKRMSVYVILVLVSNNRTGQTLVRETGCITVLSRLFRTVISKHELDLSDKNVFQSYQLWSSVCSTLCVCVNNPQNDENQMFCCSLFPHANEWLKNCTTPEIIRPICSFIGLTLANNTYVQKYFVSVGGLDVLSQVLMQLESDSHETLSSAKLAVVVTKTVDACIADNPTFGIVLSKYHIVSKLLALLLHESLDSGEKFSIMLTLGHCTEDCEENQYDLFKNNGLPLMIQALTESQNEELNKAATFVLHNCKKITEKLSLSLGEYPFDENETQQLKDISVKENNLEEHWRKAKEILHRIEQLEREGNEEEIQRENYQDNISSMNISIQNTWKHLHADRIGRGSKAEDEDKSHSRQLQSYKSHGVMSKACTNDDQMKTPLKSANPVHACYRESEQNKTLYKAKSSCNQNLHEETTFEKNFVSQSSDHVFKHPVHIAKNIKQQLPVTDPFTLCSDIINKEVVSFLATPSCSEMLTYRCSGCIAVEKSLNSRNFSKLLHSCPYQCDRHKVIVEAEDRYKSELRKSLICNKKILLTPRRRQRLSNESTTPGGIKKRRIRKNFTEEEVNYLFNGVKKMGNHWNSILWSFPFQQGRKAVDLAHKYHKLTKHPTCAAS				binding [2]: binds; binding [3]: binds; binding [4]: no binding
Mouse TERB1 (293T cells) (protein, UniProt Q8C0V1 1-768) MESEKPKKTQEMKTDLKLLLECLKYHMGNPLSQKEVLITIHSVCKQNSDAGIYFREIGGLMFIINLAKSSEQSLVKEAALYTLGSIAEENVYCQQSLCTSELFQDLTGLLTNDDSNTNLKRMSVYVLLVLVSNNRNGQTLVREVGCIEVLSQMFRTVLSNYELNLSDNSVFQSYLLWSSVCSTLCVCVNNPQNDENQMLCCSLFPCVNEWLMNCMRPEVIRPICSFIGLTLANNTHAQNCFVSSGGLDVLCQVLVQLESDSHNTLSSAKLAVIVTKTMDACITDNSAAFTVVLSKYHIVSTLLALLLHESLDSREKFSIILAIGHCTEDCEKNQYELLKNNGLPLMIQALTEFKNEDLSKAATYVLHNCKKITGKLSLSLGQNSFGENEIELKDISEKETLREHWKAAKEILCRIKQFEKGGKEEKQQNRSGHYKDNTPSMKVNIQTNLKRLCADSTGGTRAEDKDINQSRELRSYKPSEIMSKACANENQLTTRKKNTNPVHPFCKEKGQSKIVHETTPSCAQNLDKEKTFDQKDSVSQSSDQVLKHLPHTVKNRKQVPETDPFTLCLDIIDREVGIQATDSCSRMLKYTCSGCIVARKLLNSRNFSKFLHSCAYQCVHHKVIMEAEDKYKNELRKTFICAKKILLTPCRRRQLCKESTASEELKIVHQKPDSKKLPGLEAQALNTSIPEAMERRSPVPGQSGLHKKRRIRKDFTKEEVNYLFHGVKTMGNHWNSILWSFPFQKGRRAVDLAHKYHRLIKGPSCAAL	binds	binds	no binding	
Mouse MAJIN (293T cells) (protein, UniProt Q9D992 1-256) MSLKPFTYPFPETRFLHAGPNVYKFKIRYGNSIRGEEIEDKEVIVQELEDSIRAVLANMDSLQPFVTEHFIVFPYKSKWERVSHLKFKHGESILTPYPFVFTLYIEMKWFAEDLPSGKPADDIPLELVLAETEAEEATMRKWKRKLMEEPSSPSRQGPHRAKMETSSEASSNKKPLKESKRSTDEEAQQEYQDTPASNAIAVKEQDAALGHGLQGLVVPPLQHSSPPPPKEPGARGFLGFLSALFPFRYFFKKSGQ	no binding	binds	binds	
TERB2 residues 1–116 fused to the Venus N-terminus (TERB2-VN truncation) (domain or fragment, UniProt Q8NHR7 1-116) MFQGQRGWFCGSVSQDLRQFWVAEGGTISDPRAADFLFSCDASHPDTLRIYQSLDYIEDNATVFHAYYLSAVANAKIKNSVALGHFILPPACLQKEIRRKIGSFIWEQDQHFLIEK				binding [8]: binds
Human TERB1_(587–659) (domain or fragment, UniProt Q8NA31 587-659) MLTYRCSGCIAVEKSLNSRNFSKLLHSCPYQCDRHKVIVEAEDRYKSELRKSLICNKKILLTPRRRQRLSNES				binding [9]: binds

From article PMC6361898
